Results reported in the supplement of paper PMC12217912.
The list shows a part of the results. Sequences were assembled here from the parent chain. Values near 0.05 are background.

B1: TEV protease; numbered along this chain (parent)
chain: MGESLFKGPRDYNPISSSICHLTNESDGHTTSLYGIGFGPFIITNKHLFRRNNGTLVVQSLHGVFKVKDTTTLQQHLVDGRDMIIIRMPKDFPPFPQKLKFREPQREERICLVTTNFQTKSMSSMVSDTSCTFPSGDGIFWKHWIQTKDGQCGSPLVSTRDGFIVGIHSASNFTNTNNYFTSVPKNFMELLTNQEAQQWVSGWRLNADSVLWGGHKVFMVKPEEPFQPVKEATQL

Variants of: B1
Experiment: raw area under fraction-flipped curve 0-4 h after induction (AUC4h, not background-subtracted), DNA-recorder readout of cleavage of the substrate (dimensionless); higher = more cleavage of the substrate by the protease variant
Conditions: temperature: 34 °C; time window: 0-4 h after rhamnose induction
Experimental: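 In vivo DNA recorder in E. coli TOP10(DE3) ΔrhaA at 34 °C. Each TEVp single-site mutant (parent TEVp 0) is paired with a single-site variant of the 7-mer TEVs (canonical ENLYFQ|S). The substrate sits between flexible linkers in a Bxb1-sfGFP-TEVs-SsrA fusion, so cleavage stabilises Bxb1 and speeds flipping of a recombination array, read by NGS. The value is the raw area under the fraction-flipped curve over 0-4 h after rhamnose induction (AUC4h), with ≥20 reads per time point. It is not background-subtracted; inactive controls average about 0.047.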
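Note: Bxb1 expression induced with 0.2% (w/v) L-rhamnose at OD600 near 0.5, cultures sampled hourly, flipped fraction per protease–substrate barcode pair counted by paired-end Illumina sequencing.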

Variant | area with substrate EALYFQS | area with substrate ECLYFQS | area with substrate EDLYFQS | area with substrate EHLYFQS | area with substrate EILYFQS | area with substrate EKLYFQS | area with substrate EPLYFQS | area with substrate ESLYFQS | area with substrate EVLYFQS | area with substrate EWLYFQS | area with substrate EYLYFQS | area with substrate EELYFQS | area with substrate EFLYFQS | area with substrate EQLYFQS | area with substrate ERLYFQS | area with substrate ETLYFQS | area with substrate EGLYFQS | area with substrate EMLYFQS | area with substrate ELLYFQS
T72H | 0.113 | 0.0874 | 0.111 | 0.0959 | 0.0635 | 0.107 | 0.106 | 0.0876 | 0.0952 | 0.0873 | 0.0666 | – | – | – | – | – | – | – | –
R204H | 0.126 | 0.126 | 0.129 | 0.1 | 0.0978 | – | 0.11 | 0.11 | 0.0819 | 0.116 | 0.108 | 0.112 | 0.0809 | 0.113 | 0.11 | 0.109 | – | – | –
A232C | 0.119 | 0.0794 | – | – | 0.0893 | – | – | 0.0944 | – | – | – | 0.109 | – | 0.0659 | – | – | 0.0655 | 0.144 | –
A232M | 0.0886 | 0.0538 | 0.124 | – | 0.075 | – | – | 0.121 | – | 0.0988 | – | – | – | – | 0.112 | – | 0.111 | – | 0.0943
A232S | 0.147 | – | – | – | 0.106 | – | – | 0.118 | – | – | 0.123 | – | – | 0.153 | – | – | 0.0881 | – | 0.128
D128R | 0.14 | 0.0956 | 0.0984 | – | 0.106 | 0.131 | 0.137 | 0.123 | 0.0982 | 0.121 | – | 0.138 | – | 0.15 | 0.13 | – | – | 0.13 | –
D128I | 0.143 | 0.128 | 0.124 | – | – | – | – | 0.117 | – | – | – | 0.145 | 0.108 | 0.156 | 0.0908 | 0.143 | – | 0.116 | 0.108
D128E | 0.112 | – | – | – | 0.0694 | 0.13 | 0.114 | 0.087 | 0.0855 | 0.0944 | – | – | – | 0.224 | 0.0793 | 0.113 | 0.0916 | 0.16 | 0.0803
D128N | 0.162 | 0.12 | 0.169 | 0.131 | 0.103 | 0.159 | – | 0.135 | 0.0991 | 0.107 | 0.111 | 0.141 | – | 0.145 | 0.134 | 0.143 | – | 0.12 | 0.118
G54I | 0.0607 | 0.0745 | 0.0757 | – | 0.0556 | – | – | 0.072 | 0.0688 | 0.065 | – | 0.0499 | 0.0657 | 0.0659 | – | – | 0.0595 | 0.0628 | 0.061
H168E | 0.0663 | 0.0611 | – | – | 0.0601 | 0.0679 | 0.0552 | 0.0477 | 0.0559 | 0.0933 | – | 0.0582 | – | 0.0577 | – | 0.0597 | 0.0514 | – | 0.0854
F117N | 0.0964 | 0.0959 | 0.111 | – | 0.101 | 0.077 | – | 0.107 | 0.0804 | 0.111 | – | 0.126 | 0.124 | – | 0.0955 | – | 0.111 | 0.0847 | –
P184C | 0.122 | 0.0972 | 0.104 | – | 0.0833 | 0.137 | 0.0923 | 0.175 | 0.0768 | – | – | – | 0.0776 | – | – | 0.099 | – | – | –
I164A | 0.0595 | 0.0688 | 0.0519 | 0.0652 | 0.056 | 0.0262 | 0.0937 | 0.0443 | 0.0555 | 0.0503 | 0.0728 | 0.0704 | 0.0435 | 0.0624 | 0.0602 | – | – | 0.0787 | 0.0549
